Structures are written as SMILES. Among all 48,000 compounds or so, about 120 (0.25%) were called active. Another 4% or so got no clear call; they are omitted. Calls follow the shape of the dose curve; as a rule, active = well fitted activation curve with a large enough effect; inconclusive = small, poorly fitted or top-dose-only effect, or another doubt; inactive = no such curve, though single readings can be large or run the other way. Some of the results follow.

The nature of this experiment: Primary qHTS for Identification of Small Molecule Activators of Huntingtin-Antisense Promoter Activity. Also: nearly all actives have a fitted effect of over 55% in size. The following applies: HEK293 HTT-AS promoter firefly luciferase reporter (activity 0% = vehicle and -100% = no light), 24 h; series mostly up to 57.5 µM; activity change, positive = activation: at the top concentration. In a few lines: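 Luminescence was read after Dual-Glo reagent and a 10 min room-temperature incubation. Values were normalized to vehicle (0% activity) and zero RLU (-100% activity). Reporter HEK293 cells had been exposed to compounds (up to 57.5 uM final) for 24 h.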
Turning to `Cc1ccc(N(CC(=O)N2CCN(c3ccc(F)cc3)CC2)S(=O)(=O)c2c(C)noc2C)cc1`, the “activity change, positive = activation” value was inactive: -20.6%.
The figure for `CC(C)(C)C(=O)NCCc1nc2ccccc2n1CCCCOc1ccccc1` is inactive: -29.1%; for `CCCCN1CC(c2nc3ccccc3n2CCCCOc2ccccc2C)CC1=O` (stereo unspecified) it is inactive: -51.3%; for `CC(=O)OC1=CN(Cc2ccccc2)S(=O)(=O)c2ccccc21` it is inactive: -10.8%.
Turning to `COc1ccc(OC)c(S(=O)(=O)NCCc2sc(-c3cccnc3)nc2C)c1`, the “activity change, positive = activation” value is inactive: -4.46%.
With `O=C(c1ccc2c(c1)N(Cc1ccc(Cl)cc1)C(=O)c1ccccc1S2(=O)=O)N1CCCCCC1`, the “activity change, positive = activation” value is inactive: -34.9%.
`CCCN(Cc1cccs1)C(=O)Nc1cc(C)ccc1OC`: the “activity change, positive = activation” value is inactive: -7.62%.
Take `Cc1cccc(C)c1Nc1c(-c2ccccc2Cl)nc2cnccn12`: the “activity change, positive = activation” value is inactive: -35.9%.
Next, `COc1ccccc1N1CCN(c2nc3ccc(C(=O)c4ccccc4)cc3n3c(C)nnc23)CC1`: inactive: 0.753%.
For `Cc1ccc(-c2onc(C)c2C)cc1S(=O)(=O)NCc1cccs1`, the “activity change, positive = activation” value is inactive: -45.9%.
As for `COc1ccc(OC)c(CNC(=O)C2CCN(S(=O)(=O)N3CCCCC3)CC2)c1`, the “activity change, positive = activation” value was inactive: -4.54%.
With `O=C(COc1ccc(F)cc1)Nc1ccc2nc(SCC(=O)N3CCCC3)sc2c1`, the “activity change, positive = activation” value is inactive: -21%.
As to `COc1ccccc1N1CCN(C2C(=O)c3ccccc3N2C(C)=O)CC1` (stereo unspecified), the “activity change, positive = activation” value is inactive: -15.5%.
Consider `Cc1ccc(-c2cn3c(n2)sc2cc(C(=O)NCCC4=CCCCC4)ccc23)c(C)c1`, for which the “activity change, positive = activation” value is inactive: 23.3%.
For the molecule `CCOc1ccc(S(=O)(=O)NCC(c2ccc(N(C)C)cc2)N2CCCC2)cc1` (stereo unspecified), the “activity change, positive = activation” value was inactive: -9.46%.
Next, `CCOc1ccc(-c2nnc(SCC(=O)Nc3ccccc3C(F)(F)F)o2)cc1`: inactive: -25.9%.
For the molecule `Cc1ccc(N2C(=O)C(CC(=O)Nc3ccc(F)cc3)N(CCC3=CCCCC3)C2=O)cc1` (stereo unspecified), the “activity change, positive = activation” value is inactive: -53.8%.
The figure for `Cc1cccc(C)c1NC(=O)c1cc(S(N)(=O)=O)c(Cl)cc1O` is inactive: 6.84%; for `Cc1cc(C)c(S(=O)(=O)Nc2ccc3oc4c(c3c2)CCCC4)cc1C` it is inactive: -17.1%.
Turning to `COCCCNC(=O)c1ccc(CSc2nc3cccnc3n2Cc2ccc(OC)cc2)cc1`, the “activity change, positive = activation” value was inactive: -15%.
For `CC(CNC(=O)CCn1c(=O)c2cccn2c2ccc(F)cc21)c1ccccc1` (stereo unspecified), the “activity change, positive = activation” value is inactive: -20.1%.
For `CCOC(=O)c1ccccc1NC(=O)CSc1c(C)cnc2c1c(=O)n(C)c(=O)n2C`, the “activity change, positive = activation” value was inactive: -7.67%.
With `Cc1nc2c(c(C)c1CCC(=O)N1CCN(c3ccccc3)CC1)c(=O)n(C)c(=O)n2C`, the “activity change, positive = activation” value is inactive: -14.5%.
In the case of `COc1ccc(C2C=C(c3ccccc3)Nc3nc(NS(=O)(=O)c4ccccc4)nn32)cc1` (stereo unspecified), the “activity change, positive = activation” value is inactive: -17.8%.
Next, `O=C(Nc1cccc(Cl)c1Cl)c1cc(S(=O)(=O)N2CCCCC2)ccc1F`: inactive: -8.89%.
In the case of `Cc1ccc(C)c(Cn2c(=O)n(-c3ccc(Cl)cc3)c(=O)c3c4c(sc32)CCC4)c1`, the “activity change, positive = activation” value is inactive: -5.95%.
Turning to `O=C(CCNNC(=O)c1ccncc1)NCc1ccccc1`, the “activity change, positive = activation” value is inactive: -7.52%.
In the case of `CCOC(=O)c1c(C)[nH]c(C)c1S(=O)(=O)N1CCC(C(=O)N2CCN(c3cccc(C)c3)C(C)C2)CC1` (stereo unspecified), the “activity change, positive = activation” value is inactive: -18.2%.
Take `O=C(Nc1ccc(C(F)(F)F)cc1)c1cc(S(=O)(=O)NC2CCCCCC2)ccc1F`: the “activity change, positive = activation” value is inactive: -74.7%.
The figure for `CCOC(=O)c1ccc(CN(Cc2ccc(F)cc2)S(=O)(=O)c2ccc(F)cc2)cc1` is inactive: -15.9%; for `Cc1nc2ccccn2c(=O)c1CCN1CCC(C(=O)c2ccc(F)cc2)CC1` it is inactive: -18.9%.
In the case of `CCCOc1ccc(C2c3c(oc4ccccc4c3=O)C(=O)N2c2ccc(C)cn2)cc1OCC` (stereo unspecified), the “activity change, positive = activation” value was inactive: -10%.
In the case of `Cc1ccc(C)c(NC(=O)Nc2nnc(N(CC(C)C)CC(C)C)s2)c1`, the “activity change, positive = activation” value was inactive: -22.9%.
Turning to `Cc1ccc(CCNC(=O)c2ccc3c(=O)n(-c4ccc(C)cc4)c(=O)[nH]c3c2)cc1`, the “activity change, positive = activation” value is inactive: 22.9%.
Next, `CCOc1cccc2sc(NC(=O)c3ccc(S(=O)(=O)N4CCCc5ccccc54)cc3)nc12`: inactive: -24.6%; `Cc1ccccc1S(=O)Cc1ccc(C(=O)NC2CCCCCC2)o1` (stereo unspecified): inactive: -15%; `COc1ccc2oc(=O)c(-c3nc(-c4cc(OC)c(OC)c(OC)c4)no3)cc2c1`: inactive: -2.88%.
Turning to `Cc1ccccc1N1CCN(CCc2nnc3n2CCCC3)CC1`, the “activity change, positive = activation” value was inactive: -2.81%.
Next, `CCC(=O)c1ccc2c(c1)N(CCCN(C)C)c1ccccc1S2`: inactive: -16.3%; `O=C(Cn1cc(SCc2cccc(F)c2)c2ccccc21)N1CCCC1`: inactive: 14.3%.
Next, `Cc1cc2oc(C(=O)Nc3sc4c(c3C(=O)NCc3ccco3)CCC4)cc(=O)c2cc1C`: inactive: -0.994%; `Cc1ccc2c(CNCc3cccc(Cl)c3)c(C(=O)O)n(Cc3ccc(F)cc3Cl)c2c1`: inactive: -9.1%.
Take `CCOc1ccc(OCC)c(NC(=O)c2nnn(Cc3cc(Br)ccc3OC)c2N)c1`: the “activity change, positive = activation” value is inactive: -10.4%.
With `COCCCNC(=O)c1cn(CC(C)C)c(=O)c2c1c1ccccc1n2C`, the “activity change, positive = activation” value was inactive: -6.53%.
Turning to `COc1cc(OC)c(NS(=O)(=O)c2cc3c(cc2C)NC(=O)CO3)cc1Cl`, the “activity change, positive = activation” value is inactive: -26.5%.
The figure for `COCCn1c(CNC(=O)c2cccc(N(C)C)c2)nc2cccnc21` is inactive: 19.3%.
Turning to `CC(=O)c1ccc(N2CCN(C(=O)C3CCN(S(=O)(=O)c4ccc(Br)s4)CC3)CC2)cc1`, the “activity change, positive = activation” value was inactive: -39.7%.
Next, `Cc1ccc(NC(=O)c2nc(S(C)(=O)=O)ncc2N(Cc2ccco2)Cc2ccccc2F)c(C)c1`: inactive: -18.7%; `CCN(Cc1ccccc1)C(=O)CCS(=O)(=O)c1cc2c(cc1Cl)NC(=O)CO2`: inactive: -8.97%; `CCCCn1c(=O)n(Cc2ccccc2F)c(=O)c2[nH]c(Cc3ccc(NC(C)=O)cc3)nc21`: inactive: -25.8%.
`Nc1ccc(-c2ccc3ncc4ccc(=O)n(-c5cccc(C(F)(F)F)c5)c4c3c2)cn1`: the “activity change, positive = activation” value is inactive: -37%.
As for `COC(=O)c1cc(NC(=O)c2oc(=O)c3ccccc3c2-c2ccccc2)cc(C(=O)OC)c1`, the “activity change, positive = activation” value is inactive: -10.7%.
`Cc1ccc(NC(=O)CN2C(=O)CSc3ccc(S(=O)(=O)N4CCCC4)cc32)cc1F`: the “activity change, positive = activation” value was inactive: -19.5%.
As for `Cc1ccc(NC(=O)c2c(NC(=O)c3ccco3)sc3c2CCC(C(C)(C)C)C3)c(C)c1` (stereo unspecified), the “activity change, positive = activation” value is inactive: -5.28%.
Next, `CCc1ccc(NC(=O)c2cc(S(=O)(=O)NC3CCCC3)ccc2F)cc1`: inactive: -24.4%; `COc1cc(OC)c(NC(=O)c2nnn(Cc3ccc(C)cc3)c2N)cc1Cl`: inactive: -26.1%.
In the case of `O=C(Cn1ncc2c3ccccc3n(Cc3ccc(Cl)cc3)c2c1=O)N1CCCCCC1`, the “activity change, positive = activation” value was inactive: -19.5%.
Turning to `O=C(Cc1ccc(F)cc1)NC1CC(=O)N(c2ccc3c(c2)OCCO3)C1` (stereo unspecified), the “activity change, positive = activation” value is inactive: -15.6%.
For `COc1cccc(-c2cn3c(n2)sc2cc(C(=O)NC4CCCCCC4)ccc23)c1`, the “activity change, positive = activation” value was inactive: 5.77%.
In the case of `COc1ccc(Br)cc1CNC(=O)Cn1c(=O)c2cccn2c2ccc(F)cc21`, the “activity change, positive = activation” value was inactive: -7.27%.
Regarding `Cc1ccccc1Cn1cc(CCC(=O)NC(C)c2ccccc2)c2ccccc21` (stereo unspecified), the “activity change, positive = activation” value is inactive: -22.1%.

The values above are taken from PubChem BioAssay AID1508624 (National Center for Advancing Translational Sciences (NCATS), 2021).
